{
  "source": "patent US4719046A",
  "about": "“Crysene derivatives” (Burroughs Wellcome Co., priority 1984, dated 1988)",
  "note": "Where a name gives a salt, the structure may show the parent alone. At least one read-out could not be matched to a standard name with certainty.",
  "data": [
    {"tested_on": "lymphocytic leukemia P388/0", "test": "Lymphocytic Leukemia P388/0 Test", "assay_type": "in vivo, mouse (CD2-F1)", "settings": "median survival T/C; IP days 1, 5, 9; active if ≥120%; optimal dose mg/kg: 1B 121, 1C 115, 2 100, 3 100, 6G 65, 18B 88, 19H 110, 6H 60, 7 110, 9 300, 10B 1013, 11C 150, 12G 90, 5F 225, 13D 303, 14 196, 15B 250, 16 1012, 4B 180", "text": "Methods for evaluating the antitumor activity of these compounds are essentially those used in the Tumor Panel by the Developmental Therapeutics Program, Division of Cancer Treatment, National Cancer Institute, A. Goldin, et al., Methods in Cancer Research, Vol. XVI, p. 165, Academic Press (1979). Some modifications, in dose level and schedule have been made to increase the testing efficiency.\nCD2-F1 mice, of the same sex, weighing 20±3 g, are used for this test. Control and test animals are injected intraperitoneally with a suspension of ~10^6 viable P388/0 tumor cells on day 0. In each test, several dose levels which bracket the LD20 of the compound are evaluated; each dose level group contains six animals. The test compounds are prepared either in physiologic saline containing 0.05% Tween 80 or distilled water containing 5% dextrose and are administered intraperitoneally on days 1, 5, and 9 relative to tumor implant. Doses are on a mg/kg basis according to individual animals' body weights. The day of death for each animal is recorded, the median identified for each group and the ratios of median survival time for treated (T)/control (C) groups are calculated. The criterion for activity is T/C×100≥120%.", "values": [
      {"smiles": "C[C@@H](O)C(C)(NCc1cc2c3ccccc3ccc2c2ccccc12)[C@@H](C)O", "note": "(relative stereo) [Example 5F]", "T/C × 100% (Excluding 30 Day Survivors)": "+255%"},
      {"smiles": "C[C@H](O)[C@@](C)(CO)NCc1cc2c3ccccc3ccc2c2ccccc12", "note": "(relative stereo) [Example 6G, (+-)(2R*,3S*)-2-(6-Chrysenylmethylamino)-2-methyl-1,3-butanediol hydrochloride.1/3H2 O]", "T/C × 100% (Excluding 30 Day Survivors)": "+245%"},
      {"smiles": "CS(=O)(=O)O.C[C@H](O)[C@@](C)(CO)NCc1cc2c3ccccc3ccc2c2ccccc12", "note": "(relative stereo) [Example 6H, (+-)(2R*,3S*)-2-((6-Chrysenylmethyl)amino)-2-methyl-1,3-butanediol methanesulfonate]", "T/C × 100% (Excluding 30 Day Survivors)": "+235%"},
      {"smiles": "C[C@@H](O)[C@@](C)(CO)NCc1cc2c3ccccc3ccc2c2ccccc12.Cl", "note": "(relative stereo) [Example 7, (+-)(2R*,3R*)-2-((6-Chrysenylmethyl)amino)-2-methyl-1,3-butanediol hydrochloride]", "T/C × 100% (Excluding 30 Day Survivors)": "+285%"},
      {"smiles": "CC(CO)(CO)NCc1cc2c3ccccc3ccc2c2ccccc12.Cl", "note": "[Example 1B, 2-((6-Chrysenylmethyl)amino)-2-methyl-1,3-propanediol hydrochloride]", "T/C × 100% (Excluding 30 Day Survivors)": "+280%"},
      {"smiles": "CC(CO)(CO)NCc1cc2c3ccccc3ccc2c2ccccc12", "note": "[Example 1C, 2-((6-Chrysenylmethyl)amino)-2-methyl-1,3-propanediol methanesulfonate]", "T/C × 100% (Excluding 30 Day Survivors)": "+270%"},
      {"smiles": "Cl.OCC(CO)(CO)NCc1cc2c3ccccc3ccc2c2ccccc12", "note": "[Example 2, 2-((6-chrysenylmethyl)amino)-2-hydroxymethyl-1,3-propanediol hydrochloride]", "T/C × 100% (Excluding 30 Day Survivors)": "+240%"},
      {"smiles": "CCC(CO)(CO)NCc1cc2c3ccccc3ccc2c2ccccc12.Cl", "note": "[Example 3, 2-((6-Chrysenylmethyl)amino)-2-ethyl-1,3-propanediol hydrochloride]", "T/C × 100% (Excluding 30 Day Survivors)": "+240%"},
      {"smiles": "CC(CO)(CO)NCc1cc2c3ccccc3c(Cl)cc2c2ccccc12", "note": "[Example 4B, 2-(((12-Chloro-6-chrysenyl)methyl)amino)-2-methyl-1,3-propanediol methanesulfonate.1/3H2 O]", "T/C × 100% (Excluding 30 Day Survivors)": "+155%"},
      {"smiles": "COCC(C)(CO)NCc1cc2c3ccccc3ccc2c2ccccc12.Cl", "note": "(stereo not drawn) [Example 9D, 3-methoxy-2-((6-chrysenylmethyl)amino)-2-methyl-1-propanol hydrochloride]", "T/C × 100% (Excluding 30 Day Survivors)": "+181%"},
      {"smiles": "O[C@@H]1CCC[C@H](O)[C@H]1NCc1cc2c3ccccc3ccc2c2ccccc12", "note": "[Example 10B, (1α,2β,3α)-2-((6-Chrysenylmethyl)amino)-1,3-cyclohexanediol hydrochloride]", "T/C × 100% (Excluding 30 Day Survivors)": "+205%"},
      {"smiles": "CC(C)C(CO)(CO)NCc1cc2c3ccccc3ccc2c2ccccc12", "note": "[Example 11C, 2-((6-Chrysenylmethyl)amino)-2-isopropyl-1,3-propanediol hydrochloride 1/3 H2 O]", "T/C × 100% (Excluding 30 Day Survivors)": "+220%"},
      {"smiles": "CC(CO)(CCO)NCc1cc2c3ccccc3ccc2c2ccccc12", "note": "(stereo not drawn) [Example 12G, 2-((6-chrysenylmethyl)amino)-2-methyl-1,4-butanediol hyrochloride.1/3EtOH]", "T/C × 100% (Excluding 30 Day Survivors)": "+270%"},
      {"smiles": "OCC(CO)NCc1cc2c3ccccc3ccc2c2ccccc12", "note": "[Example 14, 2-((6-Chrysenylmethyl)amino)-1,3-propanediol methanesulfonate]", "T/C × 100% (Excluding 30 Day Survivors)": "+270%"},
      {"smiles": "CCc1cc2c3ccccc3c(CNC(C)(CO)CO)cc2c2ccccc12", "note": "[Example 15B, 2-(((12-Ethyl-6-chrysenyl)methyl)amino)-2-methyl-1,3-propanediol methanesulfonate]", "T/C × 100% (Excluding 30 Day Survivors)": "+130%"},
      {"smiles": "CC(=O)OCC(C)(COC(C)=O)NCc1cc2c3ccccc3ccc2c2ccccc12", "note": "[Example 16, 2-((6-Chrysenylmethyl)amino)-2-methyl-1,3-propanediol diacetate]", "T/C × 100% (Excluding 30 Day Survivors)": "+145%"},
      {"smiles": "CC(C)(CO)NCc1cc2c3ccccc3ccc2c2ccccc12.Cl", "note": "[Example 18B, 2-((6-Chrysenylmethyl)amino)-2-methylpropanol hydrochloride]", "T/C × 100% (Excluding 30 Day Survivors)": "+240%"},
      {"smiles": "CC(CO)(CO)NCc1ccc2ccc3c4ccccc4ccc3c2c1", "note": "[Example 19H, 2-((3-Chrysenylmethyl)amino)-2-methyl-1,3-propanediol methanesulfonate]", "T/C × 100% (Excluding 30 Day Survivors)": "+120%"}
    ]}
  ]
}
